# Assay results taken from the antibiotic and cytotoxicity screens of Wong et al. (2023).
# The other results are listed elsewhere or left out.
# Legend:
# HSkMC = human skeletal muscle cells; assay: cytotoxicity call (relative viability < 0.9); settings: 10 µM
# HepG2 = assay: cytotoxicity call (relative viability < 0.9); settings: 10 µM
# S. aureus RN4220 = assay: growth inhibition call (relative growth <= 0.2); settings: 50 µM
SMILES,cytotoxicity call (HSkMC),cytotoxicity call (HepG2),growth inhibition call (S. aureus RN4220)
Cc1ccc(NC(=O)C[C@H]2NCCNC2=O)cc1,inactive,inactive,inactive
C[C@H](CO)N1C[C@H](C)[C@H](CN(C)Cc2ccc(Oc3ccccc3)cc2)Oc2c(NC(=O)C3CC3)cccc2C1=O,inactive,inactive,inactive
CC(C)C(=O)NC1=N[C@H]2[C@@H](N=CN2[C@H]2C[C@@H](O)[C@@H](CO)O2)C(=O)N1,inactive,inactive,inactive
O=C(CCCN1CCC(O)(c2ccc(Cl)cc2)CC1)c1ccc(F)cc1,inactive,active,inactive
N#Cc1c(-c2ccccc2)no[n+]1[O-],inactive,inactive,inactive
CC(=O)c1c(O)cc(O)cc1O,inactive,inactive,inactive
C[C@@H]1CCCCO[C@H](CN(C)C(=O)CCC(F)(F)F)[C@H](C)CN([C@@H](C)CO)C(=O)c2cc(NC(=O)Cc3ccccc3)ccc2O1,inactive,inactive,inactive
Cc1ccc(S(=O)(=O)N(C)C[C@H]2Oc3ccc(NC(=O)Nc4cccc5ccccc45)cc3CC(=O)N([C@H](C)CO)C[C@@H]2C)cc1,inactive,inactive,inactive
Cc1ccc(S[C@H](C)C(=O)c2ccc(C)c(Cl)c2)cc1,inactive,inactive,inactive
C[C@H](CO)N1C[C@H](C)[C@@H](CN(C)Cc2ccc(C(=O)Nc3ccccc3N)cc2)Oc2ccc(NC(=O)Cc3cn(C)c4ccccc34)cc2C1=O,inactive,inactive,inactive
C[C@@H]1CN([C@@H](C)CO)C(=O)c2cccc(NC(=O)c3cnccn3)c2O[C@@H]1CN(C)Cc1ccccc1,inactive,inactive,inactive
O=C(C[C@@H]1C=C[C@H](NC(=O)CN2CCOCC2)[C@H](CO)O1)NC1CCCCC1,inactive,inactive,inactive
C[C@@H]1CN([C@@H](C)CO)C(=O)Cc2cc(NS(=O)(=O)c3cn(C)cn3)ccc2O[C@@H]1CN(C)Cc1ccncc1,inactive,inactive,inactive
Cc1ccc(S(=O)(=O)N(C)C[C@H]2Oc3ncc(C#CC4(O)CCCC4)cc3C(=O)N([C@H](C)CO)C[C@@H]2C)cc1,inactive,inactive,inactive
Cc1ccc(S(=O)(=O)N(C)C[C@H]2Oc3ccc(NS(=O)(=O)c4ccc(F)cc4)cc3C(=O)N([C@H](C)CO)C[C@@H]2C)cc1,inactive,inactive,inactive
Cc1c(C)c2c(c(C)c1OC(=O)CCC(=O)OCCO)CC[C@@](C)(CCC[C@H](C)CCC[C@H](C)CCCC(C)C)O2,inactive,inactive,inactive
O=C(N[C@H]1CC[C@H](CC(=O)N2CCOCC2)O[C@H]1CO)c1ccc2c(c1)OCO2,inactive,inactive,inactive
O=C(CN1CCOCC1)N[C@@H]1CC[C@@H](CCn2cc(C3CC3)nn2)O[C@@H]1CO,inactive,inactive,inactive
C[C@@H]1CCCCO[C@@H](CN(C)C(=O)Nc2cccc3ccccc23)[C@@H](C)CN([C@H](C)CO)C(=O)c2cc(NC(=O)Cc3ccccc3)ccc2O1,inactive,inactive,inactive
CCS(=O)(=O)NCC[C@H]1CC[C@H](NC(=O)C2CCOCC2)[C@H](CO)O1,inactive,inactive,inactive
C[C@@H]1CCCCO[C@@H](CN(C)CC2CCCCC2)[C@H](C)CN([C@@H](C)CO)C(=O)c2cc(NS(=O)(=O)c3cccs3)ccc2O1,inactive,inactive,inactive
COc1ccc(S(=O)(=O)Nc2ccc3c(c2)C(=O)N([C@@H](C)CO)C[C@@H](C)[C@H](CN(C)C(=O)c2ccccc2)OCCCC[C@H](C)O3)cc1,inactive,inactive,inactive
C[C@@H]1CN([C@@H](C)CO)C(=O)c2cc(NC(=O)Cn3cnnn3)ccc2O[C@H]1CN(C)Cc1ccncc1,inactive,inactive,inactive
O=C(Nc1cc(C(F)(F)F)ccc1-n1cnc2ccccc21)c1ccc(S(=O)(=O)N2CCCC2)cc1,inactive,inactive,inactive
C[C@@H]1CCCCO[C@@H](CN(C)C(=O)Nc2ccc(C(F)(F)F)cc2)[C@@H](C)CN([C@H](C)CO)C(=O)c2cc(NC(=O)Nc3ccccc3)ccc2O1,inactive,inactive,inactive
COc1ccccc1NC(=O)N(C)C[C@H]1OCc2ccccc2-c2c(n(C)c3ccccc23)C(=O)N([C@H](C)CO)C[C@@H]1C,inactive,inactive,inactive
Cc1ccc(S(=O)(=O)N(C)C[C@H]2Oc3ccc(NS(C)(=O)=O)cc3C(=O)N([C@@H](C)CO)C[C@@H]2C)cc1,inactive,inactive,inactive
